Over roughly 18,000 sequences, “TetR repression strength (sort-seq, GFP reporter)” has its median near 0.23; the highest 2% begin near 0.68. The list shows a part of the results.
The sequences below were run against TetR (class B, Tn10) (UniProt P04483) (assay: TetR repression strength (sort-seq, GFP reporter) (relative to tetO2 = 1); higher = stronger repression). Details: E. coli.
Summary of the method: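 Repression strength was calculated by subtracting the read-weighted mean bin from the top bin index plus one and dividing by the unaltered operator's value. The plasmid library was low-copy in E. coli SIG10-MAX, with eight randomized operator positions between a constitutive promoter and sfGFP and constitutive TetR. Cultures grew 5 h at 37 °C in LB containing 50 µg/mL chloramphenicol before 10^6 cells were sorted by FACS into 13 fluorescence bins, each sequenced on Illumina. Three independent transformations were averaged for members having ≥30 reads in all replicates and a CV ≤0.5.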

Sequence of UniProt P04483 (P04483 whole entry): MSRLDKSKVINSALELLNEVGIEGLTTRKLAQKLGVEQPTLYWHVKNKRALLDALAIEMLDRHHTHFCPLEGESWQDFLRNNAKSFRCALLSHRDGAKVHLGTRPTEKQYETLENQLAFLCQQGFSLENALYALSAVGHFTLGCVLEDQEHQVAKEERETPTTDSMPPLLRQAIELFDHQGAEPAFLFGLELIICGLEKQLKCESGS

Sequence | TetR repression strength
TCCCTGTGAGTAGGAGAGA | 0.318
TCCCGCCAAGTGCGCGAGA | 0.258
TCCCTAGCAGTTTTTGAGA | 0.19
TCCCGGTCAGTCAACGAGA | 0
TCCCACCCAGTGGCAGAGA | 0.508
TCCCAGTAAGTAACCGAGA | 0.0571
TCCCGCTAAGTATGGGAGA | 0.0148
TCCCTCGGAGTTGCGGAGA | 0.108
TCCCGTCTAGTTGGGGAGA | 0.328
TCCCGTTCAGTACTTGAGA | 0.239
TCCCGATGAGTATGTGAGA | 0.366
TCCCGCTGAGTCGGTGAGA | 0.115
TCCCACTGAGTTTGAGAGA | 0.365
TCCCGTCGAGTCGGTGAGA | 0.356
TCCCGGTGAGTTTGAGAGA | 0.428
TCCCCAGGAGTCCGAGAGA | 0.114
TCCCTGCTAGTGGGAGAGA | 0.261
TCCCTTTGAGTAGGTGAGA | 0.168
TCCCCTGTAGTGTTCGAGA | 0.11
TCCCAGTAAGTCTGCGAGA | 0.0074
TCCCTTTAAGTGTAGGAGA | 0.359
TCCCGATTAGTTTTGGAGA | 0.29
TCCCGGTCAGTGGAGGAGA | 0.0362
TCCCAGTGAGTCAAGGAGA | 0.204
TCCCGCGCAGTTATGGAGA | 0.236
TCCCAGGTAGTCCTGGAGA | 0.117

Sequence | TetR repression strength
TCCCCGTAAGTAGAAGAGA | 0.181
TCCCATCCAGTGTCCGAGA | 0.483
TCCCTGGCAGTGGCGGAGA | 0.246
TCCCCCTAAGTTTATGAGA | 0.326
TCCCCGTAAGTCGTAGAGA | 0.245
TCCCATGAAGTTTGGGAGA | 0.622
TCCCGGTAAGTTAACGAGA | 0.0246
TCCCGGTTAGTAAGTGAGA | 0.388
TCCCGGCCAGTAGGGGAGA | 0.275
TCCCATTTAGTTTCTGAGA | 0.0306
TCCCGCTGAGTAGTTGAGA | 0.207
TCCCAACCAGTGAGTGAGA | 0.415
TCCCCCCGAGTGTCCGAGA | 0.415
TCCCTTACAGTTCCTGAGA | 0.494
TCCCTCAGAGTACTAGAGA | 0.17
TCCCCGCGAGTTTTGGAGA | 0.21
TCCCCGAGAGTGCTGGAGA | 0.252
TCCCCGCGAGTGACGGAGA | 0.181
TCCCAGCGAGTGGCTGAGA | 0.0853
TCCCTTTCAGTAGGGGAGA | 0.194
TCCCGGCTAGTCCCCGAGA | 0.325
TCCCAGGGAGTCGGGGAGA | 0.454
TCCCGTGGAGTTTCTGAGA | 0.0476
TCCCAGCAAGTTGGCGAGA | 0.0163
TCCCCGGGAGTCAGTGAGA | 0.182
TCCCATAGAGTAGACGAGA | 0.309

Sequence | TetR repression strength
TCCCCGGGAGTCCGCGAGA | 0.288
TCCCTACGAGTGTGAGAGA | 0.147
TCCCCATCAGTTACAGAGA | 0.281
TCCCGCATAGTGCCTGAGA | 0.0957
TCCCATCTAGTAAGCGAGA | 0.394
TCCCCCATAGTTATTGAGA | 0.415
TCCCTGCAAGTGAGTGAGA | 0.189
TCCCTATTAGTCGCTGAGA | 0.304
TCCCCCAGAGTGAGTGAGA | 0.152
TCCCTCGAAGTGAAGGAGA | 0.146
TCCCAGTAAGTTGCTGAGA | 0.0906
TCCCTTGGAGTCATTGAGA | 0.207
TCCCGCACAGTCGCGGAGA | 0.193
TCCCCCTAAGTAGTTGAGA | 0.299
TCCCCGTCAGTTGTGGAGA | 0.023
TCCCATCGAGTTTCCGAGA | 0.273
TCCCTGTCAGTGGCAGAGA | 0.545
TCCCGGGTAGTTTATGAGA | 0.262
TCCCCGGGAGTGTTGGAGA | 0.193
TCCCTTATAGTGGAGGAGA | 0.0898
TCCCTCTCAGTGCCAGAGA | 0.585
TCCCCGGGAGTCTGCGAGA | 0.385
TCCCCTAGAGTAACGGAGA | 0.169
TCCCAATGAGTGTGGGAGA | 0.244
TCCCCACTAGTAACAGAGA | 0.311
TCCCAGTCAGTTGATGAGA | 0.454

Sequence | TetR repression strength
TCCCGTGGAGTAAACGAGA | 0.387
TCCCAGAGAGTAGCCGAGA | 0.386
TCCCCACTAGTATAGGAGA | 0.207
TCCCAACTAGTTATAGAGA | 0.346
TCCCTCCCAGTGAAAGAGA | 0.588
TCCCTGATAGTATAGGAGA | 0.258
TCCCATTGAGTGACAGAGA | 0.582
TCCCGATAAGTCGTGGAGA | 0.0145
TCCCGTGCAGTGGCAGAGA | 0.324
TCCCAAACAGTCCAGGAGA | 0.00506
TCCCAAGTAGTATCGGAGA | 0.405
TCCCGTGGAGTAAGGGAGA | 0.43
TCCCGATTAGTGCGGGAGA | 0.00518
TCCCGTCTAGTGGGAGAGA | 0.503
TCCCTAAAAGTCCGGGAGA | 0.388
TCCCACTCAGTATAGGAGA | 0.195
TCCCGTAAAGTCAGTGAGA | 0.074
TCCCGCAGAGTACCAGAGA | 0.321
TCCCGCGCAGTCGTGGAGA | 0.33
TCCCATTAAGTAGAGGAGA | 0.335
TCCCTTCCAGTGAGAGAGA | 0.276
TCCCGGCTAGTGGAGGAGA | 0.292
TCCCCACAAGTGAAAGAGA | 0.32
TCCCGGCTAGTAGACGAGA | 0
